# Measurements published in the supplement of paper PMC10369915.
# The list shows a part of the results. Cut-off read from the data, not from the text of the source: active = 3.2 or more and inactive = the rest. Most of these values are background signal.
# Tests used:
# Assay in all cases: enrichment score (SH2-bound / input frequency) (ratio); bacterial display of known human phosphotyrosine sites (pTyr-Var adds point mutants) read by sequencing; higher = stronger binding; tyrosines were phosphorylated by kinases first
# Conditions in all cases: peptide library: pTyr-Var
# [1] = target: SHP2 C-SH2 domain E139D
# [2] = target: SHP2 C-SH2 domain wild-type
# [3] = target: SHP2 N-SH2 domain L43F
# [4] = target: SHP2 N-SH2 domain T42A
# [5] = target: SHP2 N-SH2 domain T52S
# [6] = target: SHP2 N-SH2 domain wild-type
# 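Note: displayed peptides selected on beads carrying the immobilized SH2 domain, with library peptides lacking any tyrosine serving as negative controls.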
Binder,enrichment score [1],enrichment score [2],enrichment score [3],enrichment score [4],enrichment score [5],enrichment score [6]
ATARPYSPFII [LRP5_Y1528_R1529S_YF],inactive: 0.908,inactive: 0.578,inactive: 0.821,inactive: 0.661,inactive: 0.682,inactive: 0.857
RPYSPYIIRGM [LRP5_Y1531_R1529S],inactive: 0.479,inactive: 0.377,inactive: 1,inactive: 0.463,inactive: 0.414,inactive: 0.669
RPFSPYIIRGM [LRP5_Y1531_R1529S_YF],inactive: 0.693,inactive: 0.522,inactive: 0.548,inactive: 0.485,inactive: 0.668,inactive: 0.608
RPFRPYIIRGM [LRP5_Y1531_YF],inactive: 0.224,inactive: 0.21,inactive: 0.373,inactive: 0.28,inactive: 0.244,inactive: 0.221
VCDSNYSASRW [LRP5_Y1552_D1551N],inactive: 1.07,inactive: 1.11,inactive: 0.884,inactive: 0.618,inactive: 0.893,inactive: 0.899
LKKLEYLNLAL [LRRC6_Y70],inactive: 1.24,inactive: 1.59,active: 5.93,active: 11.3,active: 8.06,inactive: 2.3
QFNPEYVQQAS [LRRC7_Y1058_H1054Y_YF],inactive: 0.802,inactive: 0.64,inactive: 0.874,inactive: 0.552,inactive: 0.607,inactive: 0.991
LEISPYMLSGR [LRRK2_Y1718],inactive: 0.935,inactive: 0.814,inactive: 2,inactive: 0.803,inactive: 1.93,inactive: 0.855
YGIAQYCCRMG [LRRK2_Y2023],inactive: 1.46,inactive: 1.32,inactive: 1.35,inactive: 1.27,inactive: 1.47,inactive: 1.33
YSIAQYCCRMG [LRRK2_Y2023_G2019S],inactive: 1.46,inactive: 1.2,inactive: 1.22,inactive: 1.19,inactive: 1.28,inactive: 1.23
MARDIYQASYY [LTK_Y672_R673Q],inactive: 1.07,inactive: 0.867,inactive: 0.939,inactive: 0.776,inactive: 0.883,inactive: 0.94
IYQASYYRRGD [LTK_Y676_R673Q],inactive: 0.33,inactive: 0.341,inactive: 0.362,inactive: 0.279,inactive: 0.337,inactive: 0.341
FQASFYRRGDR [LTK_Y677_R673Q_YF],inactive: 0.213,inactive: 0.226,inactive: 0.355,inactive: 0.282,inactive: 0.248,inactive: 0.285
FRASFYRRGDR [LTK_Y677_YF],inactive: 0.148,inactive: 0.209,inactive: 0.293,inactive: 0.186,inactive: 0.217,inactive: 0.265
GRPLFYWLTGC [LYZL6_Y140],inactive: 1.23,inactive: 1.41,inactive: 1.14,inactive: 0.964,inactive: 1.1,inactive: 1.4
YTGDIYSNSNL [LZTR1_Y141],inactive: 0.688,inactive: 0.596,inactive: 0.56,inactive: 0.45,inactive: 0.637,inactive: 0.762
HYGNNYTDVLQ [MACC1_Y803_R804T],inactive: 0.93,inactive: 1.8,inactive: 1.02,inactive: 1.89,inactive: 0.948,inactive: 1.13
HFGNNYTDVLQ [MACC1_Y803_R804T_YF],inactive: 0.844,inactive: 1.54,inactive: 0.969,inactive: 1.95,inactive: 0.925,inactive: 0.947
